Measured values from the supplement of paper PMC12217912.
The other results are listed elsewhere or left out. The full chains were built here from the parent and the listed change. Inactive controls read about 0.05.

B1: TEV protease; numbered along this chain (parent)
chain: MGESLFKGPRDYNPISSSICHLTNESDGHTTSLYGIGFGPFIITNKHLFRRNNGTLVVQSLHGVFKVKDTTTLQQHLVDGRDMIIIRMPKDFPPFPQKLKFREPQREERICLVTTNFQTKSMSSMVSDTSCTFPSGDGIFWKHWIQTKDGQCGSPLVSTRDGFIVGIHSASNFTNTNNYFTSVPKNFMELLTNQEAQQWVSGWRLNADSVLWGGHKVFMVKPEEPFQPVKEATQL

Variants of: B1
Experiment: raw area under fraction-flipped curve 0-4 h after induction (AUC4h, not background-subtracted), DNA-recorder readout of cleavage of the substrate (dimensionless); higher = more cleavage of the substrate by the protease variant
Details: temperature: 34 °C; time window: 0-4 h after rhamnose induction
Protocol: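 In vivo DNA recorder in E. coli TOP10(DE3) ΔrhaA at 34 °C. Each TEVp single-site mutant (parent TEVp 0) is paired with a single-site variant of the 7-mer TEVs (canonical ENLYFQ|S). The substrate sits between flexible linkers in a Bxb1-sfGFP-TEVs-SsrA fusion, so cleavage stabilises Bxb1 and speeds flipping of a recombination array, read by NGS. The value is the raw area under the fraction-flipped curve over 0-4 h after rhamnose induction (AUC4h), with ≥20 reads per time point. It is not background-subtracted; inactive controls average about 0.047.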
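Note: Bxb1 expression induced with 0.2% (w/v) L-rhamnose at OD600 near 0.5, cultures sampled hourly, flipped fraction per protease–substrate barcode pair counted by paired-end Illumina sequencing.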

Variant	area with substrate ENAYFQS	area with substrate ENDYFQS	area with substrate ENEYFQS	area with substrate ENFYFQS	area with substrate ENHYFQS	area with substrate ENIYFQS	area with substrate ENKYFQS	area with substrate ENNYFQS	area with substrate ENPYFQS	area with substrate ENVYFQS	area with substrate ENGYFQS	area with substrate ENQYFQS	area with substrate ENRYFQS	area with substrate ENWYFQS	area with substrate ENCYFQS	area with substrate ENSYFQS	area with substrate ENTYFQS	area with substrate ENYYFQS	area with substrate ENMYFQS
D91Y	0.0538	0.0545	0.0672	0.0378	0.0456	0.089	0.0737	0.0603	0.0595	0.113	–	–	–	–	–	–	–	–	–
F92M	0.0667	0.0587	0.0761	0.0487	0.0463	–	–	0.057	0.0616	–	0.0439	0.0588	0.0634	0.0558	–	–	–	–	–
F92Q	0.0514	0.0562	0.0527	–	0.0615	–	–	0.0548	–	0.0721	0.0624	0.0579	–	0.0438	0.0543	0.048	0.0642	–	–
F92S	0.0477	0.0548	0.0665	–	–	0.0893	–	–	0.0766	0.071	–	0.0637	0.0502	0.045	0.0589	0.0661	0.0648	0.0581	–
P93E	0.0485	0.0635	0.0636	–	–	–	0.059	0.0498	0.0578	0.108	–	0.0621	–	–	0.0409	–	–	–	–
F95E	0.0406	0.0499	–	0.0493	0.0433	0.0437	–	0.0526	0.0403	–	0.0515	0.0467	0.055	0.0203	0.0415	–	0.0464	0.0635	0.0572
Q97M	0.076	0.0618	0.0843	–	0.0525	–	–	0.0756	–	0.0559	–	0.0628	–	–	0.0608	0.0597	0.0592	–	0.077
K98H	0.0624	0.0728	0.0636	0.0603	0.0405	0.118	0.0554	–	0.0751	0.073	0.0506	0.0633	0.0682	0.0608	–	0.045	0.0595	0.0538	0.0695
L99T	0.0552	0.0422	0.0655	0.0315	–	–	0.0612	–	0.0271	–	–	0.0442	–	–	0.0725	0.044	0.0575	0.0621	–
K100P	0.0569	0.0642	–	0.0735	0.0644	0.12	0.0581	0.0593	–	0.083	0.054	0.0339	0.0671	0	0.0654	0.049	–	0.0532	0.106
F101A	0.0741	–	–	–	0.0517	–	–	–	–	–	–	0.0562	–	–	0.0551	–	–	–	–
F101G	0.0543	–	0.051	0.0556	–	–	–	–	0.0392	0.042	0.0487	0.0499	–	–	0.0548	–	0.0564	–	–
R102L	0.0382	0.0364	0.0403	0.0436	0.0422	0.0561	–	–	0.0797	0.0545	–	0.0428	–	–	0.0435	0.0512	–	0.0501	–
R102S	0.0484	0.0557	–	0.0778	0.043	0.0622	0.0441	0.0471	0.0449	0.0493	0.0641	0.0573	0.0523	–	0.0524	0.0464	0.0475	0.0325	–
